# Some of the results follow.
# Columns and labels:
# HSkMC = human skeletal muscle cells; assay: cytotoxicity call (relative viability < 0.9); details: 10 µM
# HepG2 = assay: cytotoxicity call (relative viability < 0.9); details: 10 µM
# S. aureus RN4220 = assay: growth inhibition call (relative growth <= 0.2); details: 50 µM
SMILES,cytotoxicity call (HSkMC),cytotoxicity call (HepG2),growth inhibition call (S. aureus RN4220)
O=C1O[C@H](c2ccccc2)[C@H](c2ccccc2)N2[C@H]1[C@@H](C(=O)Nc1nc3ccccc3s1)[C@]1(C(=O)Nc3ccccc31)[C@H]2c1ccc(O)cc1,inactive,inactive,inactive
COc1ccc(S(=O)(=O)N(C)C[C@@H]2Oc3ccc(NC(=O)Nc4c(C)noc4C)cc3C(=O)N([C@@H](C)CO)C[C@@H]2C)cc1,inactive,inactive,inactive
Cc1noc(C)c1NC(=O)N[C@H]1CC[C@@H](CC(=O)NCCCN(C)C)O[C@@H]1CO,inactive,inactive,inactive
C[C@@H]1CN([C@@H](C)CO)C(=O)c2c(c3ccccc3n2C)-c2ccccc2CO[C@@H]1CN(C)C(=O)c1ccc(F)cc1,inactive,inactive,inactive
Cc1ccnc(=O)[nH]1,inactive,inactive,inactive
O=c1c(-c2ccccc2F)coc2cc(O[C@@H]3O[C@H](CO)[C@@H](O)[C@H](O)[C@@H]3O)ccc12,inactive,inactive,inactive
C[C@H](CO)N1C[C@H](C)[C@H](CN(C)S(C)(=O)=O)Oc2ccc(NC(=O)CCN3CCOCC3)cc2C1=O,inactive,inactive,inactive
O=C(C[C@@H]1C=C[C@H](NS(=O)(=O)c2ccccc2F)[C@@H](CO)O1)NCCCN1CCOCC1,inactive,inactive,inactive
C[C@H](CO)N1C[C@H](C)[C@H](CN(C)C(=O)NC2CCCCC2)Oc2c(NS(C)(=O)=O)cccc2C1=O,inactive,inactive,inactive
C[C@@H]1CN([C@@H](C)CO)C(=O)c2cc(NC(=O)C3CCCCC3)ccc2O[C@@H](C)CCCCO[C@@H]1CN(C)C(=O)Nc1cccc2ccccc12,inactive,active,inactive
